Source: paper PMC4336329 (PLoS ONE, 2015)
Among all 310,000 compounds or so, about 14,000 (4.5%) showed an effect of 50% or more. The effect is printed as a negative number. Some of the results follow.

target: human ether-à-go-go-related gene (hERG) potassium channel (human, UniProt Q12809); test: primary screen, population patch clamp on CHO cells stably expressing hERG
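Also: peak tail current of the secondary pulse compared with the same well before compound.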

Chain of human ether-à-go-go-related gene (hERG) potassium channel (Q12809 whole entry, looked up): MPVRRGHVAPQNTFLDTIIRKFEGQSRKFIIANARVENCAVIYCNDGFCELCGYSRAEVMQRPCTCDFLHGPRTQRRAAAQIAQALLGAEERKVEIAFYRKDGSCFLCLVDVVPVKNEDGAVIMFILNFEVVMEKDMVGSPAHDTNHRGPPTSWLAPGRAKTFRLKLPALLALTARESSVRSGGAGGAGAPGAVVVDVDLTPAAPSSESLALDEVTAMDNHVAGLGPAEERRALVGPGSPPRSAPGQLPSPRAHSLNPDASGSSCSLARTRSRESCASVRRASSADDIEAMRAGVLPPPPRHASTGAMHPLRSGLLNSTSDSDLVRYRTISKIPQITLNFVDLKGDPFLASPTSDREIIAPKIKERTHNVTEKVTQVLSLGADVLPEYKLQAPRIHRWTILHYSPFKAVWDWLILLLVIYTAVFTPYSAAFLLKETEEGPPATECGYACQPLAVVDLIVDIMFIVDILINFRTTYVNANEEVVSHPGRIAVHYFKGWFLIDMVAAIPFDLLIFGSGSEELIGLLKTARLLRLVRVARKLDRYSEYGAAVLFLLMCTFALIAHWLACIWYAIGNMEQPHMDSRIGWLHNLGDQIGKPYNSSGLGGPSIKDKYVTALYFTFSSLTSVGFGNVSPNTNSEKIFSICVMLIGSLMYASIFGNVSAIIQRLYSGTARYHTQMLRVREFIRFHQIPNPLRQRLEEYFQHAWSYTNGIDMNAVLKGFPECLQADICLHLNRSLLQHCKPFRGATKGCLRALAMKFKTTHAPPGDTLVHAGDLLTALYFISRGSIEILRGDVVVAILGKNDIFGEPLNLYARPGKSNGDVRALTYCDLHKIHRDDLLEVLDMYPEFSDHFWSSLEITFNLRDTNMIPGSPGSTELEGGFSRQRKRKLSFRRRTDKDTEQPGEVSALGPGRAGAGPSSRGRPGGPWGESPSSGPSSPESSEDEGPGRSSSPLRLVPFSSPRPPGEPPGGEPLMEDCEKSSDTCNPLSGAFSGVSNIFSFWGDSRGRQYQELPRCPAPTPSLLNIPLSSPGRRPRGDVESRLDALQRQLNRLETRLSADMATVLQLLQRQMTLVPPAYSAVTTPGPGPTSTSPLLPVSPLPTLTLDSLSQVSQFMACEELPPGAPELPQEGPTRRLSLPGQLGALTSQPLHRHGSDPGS

In order of rising “hERG current change (%, negative = inhibition) at 10uM” value:
1. CC(CCc1ccc(O)cc1)NCCC(c1ccccc1)c1ccccc1 (centres unmarked)  -76.1%
2. CCOC(=O)c1c(-c2ccccc2)oc2ccc(O)c(CN3CCCC3)c12  -64.3%
3. Cc1ccc(S(=O)(=O)Nc2ccc3c(c2)nc(CCN2CCCCC2)n3C)cc1  -63.6%
4. O=C(NCc1cccnc1)c1nc(-c2ccc(C(F)(F)F)cc2)no1  -45.5%
5. Cn1c(=O)n(Cc2ccccc2)c(=O)c2c1nc1n2CCN1Cc1ccco1  -36.7%
6. CCN1CCN(c2ccc(S(=O)(=O)N3CCCCC3)cc2NC(=O)c2cccc(Cl)c2)CC1  -34.6%
7. CSc1ccc(C(=O)C2CCCN(C(=O)c3nonc3C)C2)cc1 (centres unmarked)  -27.5%
8. Cc1c(NC(=O)c2c([N+](=O)[O-])cnn2C)c(=O)n(-c2ccccc2)n1C  -25.2%
9. Cn1c(SCc2ccccc2)nnc1-c1ccc2c(c1)OCO2  -22.7%
10. Cn1cc(CN(CCCN2CCOCC2)C(=S)Nc2cccc(Cl)c2)c2ccccc21  -21.3%
11. COc1cnn(-c2ccccc2)c(=O)c1SCc1ccc(Cl)c(Cl)c1  -21.1%
12. CCc1nnc(NC(=O)CCC(=O)N2CCN(CCOc3ccc(C)cc3)CC2)s1  -20.2%
13. O=C(CSc1nc2c(cnn2-c2cccc(Cl)c2)c(=O)[nH]1)NCCC1=CCCCC1  -16.7%
14. Cc1nc(-c2cccnc2)sc1C(=O)Nc1ccc(F)cc1F  -15%
15. Cc1cc([N+](=O)[O-])ccc1NC(=O)CN1C2CCC1CC(NC(=O)NC13CC4CC(CC(C4)C1)C3)C2 (centres unmarked)  -14.9%
16. O=C1C2CCCN2C(=O)N1CCCCN1CCN(CCO)CC1 (centres unmarked)  -14.9%
17. COc1cc2c(cc1OC)CN(Cc1cc(OC)c(O)c(OC)c1)CC2  -14%
18. COc1ccc(-n2ncc3c2CC(C)(C)CC3NC(=O)CCN2CCCCC2=O)cc1 (centres unmarked)  -13.9%
19. Cc1cc(C(=O)OCC(=O)NC2CC2)ccc1[N+](=O)[O-]  -12.4%
20. O=C(NCCc1ccccc1)C1CCN(S(=O)(=O)N2CCCCCC2)CC1  -11.9%
21. COc1ccc(OC)c(NC(=O)COc2ccc(S(=O)(=O)NC(C)C)cc2)c1  -10.4%
22. Cc1[nH]c2ccc(C(=O)NCCCN3CCCCC3)cc2c1C  -10.2%
23. c1ccc(COc2cccc(CN3CCN(c4ccccn4)CC3)c2)cc1  -10.1%
24. CCOC(=O)c1ccc(CNC(=O)Cn2nnc(-c3ccc(C)cc3)n2)o1  -10.1%
25. CC(C)N(Cc1nc(-c2ccc(Cl)cc2)no1)C(=O)c1cccs1  -8.63%
26. Cc1cccc2cc(C(c3nnnn3Cc3ccccc3)N3CCN(C)CC3)c(=O)[nH]c12 (centres unmarked)  -8.42%
27. Cc1ccc(/C=N/NC(=O)c2cccs2)cc1[N+](=O)[O-]  -8.39%
28. O=S1(=O)[C@H]2C[C@@H]3C=C[C@@]2(CN1Cc1ccc(Cl)cc1)O3  -8.32%
29. Cc1cccc(NC(=O)C2Cc3ccccc3CN2C(=O)OCc2ccccc2)c1C (centres unmarked)  -7.91%
30. COc1ccc(Cl)cc1C(=O)NNC(=O)COC(=O)CCN=C1NS(=O)(=O)c2ccccc21  -7.54%
31. COc1cc(NC(=S)NCc2cccnc2)cc(OC)c1  -4.94%
32. CCN(c1ccccc1)S(=O)(=O)c1ccc(Cl)c(NC(=O)c2ccc(=O)[nH]n2)c1  -4.68%
33. O=C(NC(=O)c1cccc(OC(F)(F)C(F)F)c1)OC1CCS(=O)(=O)C1 (centres unmarked)  -4.68%
34. O=C(COc1ccc(Cl)cc1)NCCc1cnc[nH]1  -4.36%
35. CN(C(=O)c1cc2c(s1)-c1ccccc1S(=O)(=O)C2)c1ccccc1F  -3.69%
36. COc1cc(NC(=O)CCCNC(=O)c2ccc(Cl)cc2)cc(OC)c1  -3.41%
37. CCOC(=O)n1c(=O)n(Cc2ccc(Cl)cc2Cl)c2ccccc21  -3.22%
38. O=C(NCc1ccccc1F)c1ccc2ccccc2n1  -3.21%
39. COc1ccc(-c2ccnc(SCC(=O)c3ccc(OC)c(OC)c3)n2)cc1  -2.4%
40. CCOC(=O)CSc1nnc(CNC(=O)Cc2ccccc2)n1-c1ccccc1OC  -2.02%
41. COc1cc(/C=N/NC(=O)CSc2ccccn2)ccc1O  -1.89%
42. O=C(O)C(Cc1cnc[nH]1)NS(=O)(=O)c1ccc(Cl)cc1 (centres unmarked)  -0.798%
43. CC(=O)Nc1ccc2c(c1)OCCO2  -0.459%
44. CSc1cccc(NC(=S)N2CCCN(Cc3cccc(Cl)c3)C2)c1  -0.256%
45. COc1ccccc1/C=C/C(=O)NCc1cccnc1  0.24%
46. Cc1nn(CCCC(=O)NCCc2ccccc2)c(=O)c2nccn12  0.983%
47. CCOC(=O)C1C(=O)NC(N2CCCCC2)=NC1C(C)C (centres unmarked)  1.14%
48. CCC(C(=O)Nc1ccccn1)c1ccccc1 (centres unmarked)  1.4%
49. CCC(CCC(=O)NNC(=O)Cc1ccc([N+](=O)[O-])cc1)C(=O)O (centres unmarked)  1.5%
50. CN(C)c1nc(N(C)C)nc(N(C#N)CN2C(=O)c3ccccc3C2=O)n1  1.63%
51. CCc1cccc(N=c2c([N+](=O)[O-])nn(-c3ccc4c(c3)OCCO4)n2O)c1  1.64%
52. COC(=O)C1CCN(S(=O)(=O)c2c(C)n(C)c(=O)n(C)c2=O)CC1  2.14%
53. Cc1c(CN2CCCCC2)c(O)n(CCCO)c(=O)c1C#N  2.57%
54. O=C(/C=C/c1ccco1)NC(=S)Nc1ccc(N2CCCC2)cc1  3.51%
55. CN(CCc1ccccn1)C(=O)Nc1cccc(Cl)c1  3.98%
56. O=C(O)c1cnc(N2CCOCC2)nc1  4.21%
57. CCOc1cccc(C(=O)Nc2cccc(C(C)=O)c2)c1  4.26%
58. COc1ccc(N(C(=O)c2cnccn2)C(C(=O)NC2CCCCC2)c2ccc(Cl)cc2)cc1 (centres unmarked)  4.31%
59. Fc1ccc(OCCCCCN2CCCC2)cc1  4.62%
60. O=C(NCCCn1ccnc1)C(=O)NCC1OCCN1S(=O)(=O)c1ccc2c(c1)OCCO2 (centres unmarked)  5.29%
61. CCNC(=O)CN(c1ccc(F)cc1)S(=O)(=O)c1ccc2c(c1)OCCO2  5.86%
62. CC(=O)c1c(C)[nH]c(C(=O)NC2=NCCS2)c1C  6.34%
63. O=C1C=C(c2ccc3cc[nH]c3c2)C[C@@H](c2ccc3c(c2)OCO3)C1  7.03%
64. Cc1ccc2cc3cc(C(=O)NC4CC4)oc3nc2c1  8.43%
65. CC(=O)C1=C(C)Nc2ncnn2C1c1ccccc1 (centres unmarked)  8.77%
66. CC(/C=N/NC(=O)c1ccc(CN2c3cccc4cccc(c34)S2(=O)=O)cc1)c1ccccc1 (centres unmarked)  8.83%
67. CC(=O)n1cc(CO)c2ccccc21  9.03%
68. Cc1cnc([N+](=O)[O-])n1CCOC(=O)NC(=O)c1cccc(F)c1  9.21%
69. COc1ccc(N2CCN(S(=O)(=O)CCNS(=O)(=O)c3ccccc3)CC2)cc1  9.4%
70. N#CCC(=O)Nc1ccc(C(=O)OCC(=O)c2ccc3c(c2)OCO3)cc1  9.45%
71. O=C(NNC1CC(=O)N(c2ccc3c(c2)OCCO3)C1=O)c1ccc(Cl)cc1 (centres unmarked)  10.1%
72. O=C(NCc1ccco1)c1ccc(Cn2c(=O)c3sccc3n(Cc3cccc(F)c3)c2=O)cc1  11.2%
73. C=CCOc1ccc(NC(=O)C2CC(=O)N(C(C)C)C2)cc1 (centres unmarked)  11.7%
74. O=c1cc(C(F)(F)F)nc(-c2ccccc2)[nH]1  12%
75. COc1ccc(-c2cc3ccc(O)cc3oc2=O)cc1  12.4%
76. CCCn1c(C)cs/c1=N\C(=S)Nc1ccccc1  12.8%
77. COc1cc(OC)c(NC(=O)CCNS(=O)(=O)c2ccc3c(c2)oc(=O)n3C)cc1Cl  13.9%
78. Cc1cc(CN(C)C(=O)CC2C(=O)NCCN2Cc2ccc(-c3ccccc3)cc2)on1 (centres unmarked)  14.5%
79. CC(C)OC(=O)C1C2C=CC3(CN(Cc4cccs4)C(=O)C13)O2 (centres unmarked)  17.4%
80. CCOC(=O)CNc1nnc(SCC(=O)OCC)[nH]c1=O  17.8%
81. Cc1[nH]c(=O)[nH]c(=O)c1/C=N/NC(=O)[C@H](C)N.Cl  17.9%
82. O=C(c1cc([N+](=O)[O-])ccc1N1CCOCC1)N1CCOCC1  18.1%
83. COc1ccc(N2C(=O)CC(N3CCCCC3)C2=O)cc1 (centres unmarked)  18.6%
84. CCOc1ccc(N(CC(=O)Nc2cc(OC)cc(OC)c2)S(=O)(=O)c2c(C)[nH]c(=O)[nH]c2=O)cc1  20%
85. O=c1cnnc(Nc2ccccc2)[nH]1  21.1%
86. COc1ccc(NC(=O)c2ccc3nc[nH]c3c2)cc1  21.9%
87. CCn1c(CNC(=O)Cc2ccc(OC)cc2)n[nH]c1=S  22.9%
88. CC1(C)CC(NCc2cccc([N+](=O)[O-])c2)CC(C)(C)N1.Cl  23.4%
89. Cc1ccsc1/C=N/n1c(-c2cccnc2)n[nH]c1=S  27.1%
